About 340 (0.77%) of roughly 44,000 compounds were called active. About 5% were inconclusive and are not listed. Calls come from the whole dose curve; as a rule, active = well fitted inhibition curve with a large enough effect; inconclusive = small, poorly fitted or top-dose-only effect; inactive = flat fitted curve, though single readings scatter. This is one part of the list.
assay: Acumen qHTS Assay for Inhibitors of the mTORC1 Signaling Pathway in MEF (Tsc2-/-, p53-/-) Cells: Sytravon; conditions: phospho-rpS6 immunofluorescence/PI, 24 h; series mostly up to 38.3 µM; activity change, negative = inhibition: at the top concentration;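 note: plate controls were DMSO for no effect and rapamycin for full effect; nearly all actives have a fitted effect of over 50% in size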
In short: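 Plate MEFs (Tsc2-/-, p53-/-, empty vector) in DMEM/10% FBS; after 24 h add compound, incubate 24 h at 37 degree Celsius; fix in PFA/TX-100, block, stain phospho-rpS6 and 10 uM PI; scan at 488 nm; report % positive cells.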

Activity change, negative = inhibition, inactive:
Cc1ccc(-n2nc(CO)c(C(=O)NCCCc3ccccc3)n2)cc1C 0.833%
COc1ccccc1Cn1cc(C(=O)c2ccc(C)cc2)c(=O)c2cc(C)ccc21 -14.4%
CCOc1ccccc1CNC(=O)c1c(C)oc2ncnc(N3CCOCC3)c12 -3.42%
CCOc1ccc(NC(=O)CSc2ccc(-c3sc(-c4ccccc4)nc3C)nn2)cc1 2.45%
CCOc1ccc2nc(Cl)c(C3CC(c4ccc(OC)cc4)=NN3S(C)(=O)=O)cc2c1 (stereo unspecified) 1.2%
CCOC(=O)CNC(=O)Nc1cc(C(=O)NCc2ccccc2OC)ccc1N1CCCC1 0.967%
CCOC(=O)c1oc2ccc(S(=O)(=O)n3nc(-c4cc(OC)c(OC)c(OC)c4)cc3N)cc2c1C -14.8%
Cc1ccccc1C(=O)NC1(C(F)(F)F)N=C(c2ccccc2)N(C2CCCCC2)C1=O (stereo unspecified) -8.93%
CC(C)C(=O)Nc1ccccc1OCc1cc(=O)n2ccccc2n1 -24.6%
CCOc1ccc(NC(=O)C2CCCN(c3ccc(Sc4ccc(C)cc4)nn3)C2)cc1 (stereo unspecified) -12%
COC(=O)C(CCSC)NC(=O)c1cc2c(n(-c3ccc(Cl)cc3)c1=O)CCCC2=O (stereo unspecified) 0.131%
O=C(NC(=O)c1ccccc1)Nc1ccc(-c2cc(C(F)(F)F)nn2-c2ccccc2)cc1 -0.797%
CCC(Oc1ccccc1F)C(=O)N1CCC(c2nc3ccccc3s2)CC1 (stereo unspecified) -0.58%
COc1ccc(Cl)cc1NC(=O)C1CCCN(c2ncnc3onc(C)c23)C1 (stereo unspecified) -0.115%
CCCn1c(CNC(=O)c2ccc(F)cc2)nc2ccccc21 6.82%
Cc1ccc2oc(-c3ccc(C)c(NC(=O)c4ccc(N5CCC(C)CC5)c([N+](=O)[O-])c4)c3)nc2c1 -8.38%
O=C(CCCN1C(=O)C(c2ccccc2)Oc2cccnc21)Nc1ccccc1C(F)(F)F (stereo unspecified) -5.76%
Cc1cccc(NC(=O)c2ccc3snnc3c2)c1C -12.4%
O=c1c2cc3c(cc2n(Cc2ccc(F)cc2)c(=O)n1Cc1nc(-c2ccccc2)no1)OCO3 -7.57%
CC(C)CN(CCCNC(=O)CN1N=C(c2ccc(Cl)cc2)CCC1=O)CC(C)C 9.49%
Clc1ccc2c(c1)NC(c1ccncc1)=NC(c1cccs1)=N2 4.91%
COc1ccc2c(c1)CCc1c(C(=O)Nc3c(C)nn(Cc4ccccc4C)c3C)noc1-2 -3.86%
CCOc1ccccc1NC(=O)C(CC(C)C)NS(=O)(=O)c1ccc2c(c1)oc(=O)n2C (stereo unspecified) -0.429%
COc1cc(CNC(=O)c2ccc3nc(CCc4ccccc4)oc3c2)cc(OC)c1OC 0.394%
COC(=O)c1c(SC)nc2ccccc2c1OCc1ccc(Cl)cc1 -4.26%
CNS(=O)(=O)c1cn(CC(=O)N2CCN(c3cccc(C)c3C)CC2)cc1S(=O)(=O)NC -2.96%
